This is one part of the list. No stated cut-off is given here; in the data, active = 3.2 or more and inactive = the rest. Most of these values are background signal.

The source of these data is the supplement of paper PMC10369915.

B1: SOX9_Y172_P170R_YF (peptide)
chain: KDHRDYKFQPR
B2: SPRED3_Y72_V71I (peptide)
chain: KPGLIYNKVNP
B3: SOX10_Y171_YF (peptide)
chain: KDHPDYKFQPR
B4: SQSTM1_Y433 (peptide)
chain: LDTIQYSKHPP
B5: SPATA17_Y83_M86V (peptide)
chain: TVQVAYYTVMM
B6: SOX11_Y116_YF (peptide)
chain: ADFPDYKFRPR
B7: SPTBN2_Y477_R480W (peptide)
chain: TDIVAYSGWVQ
B8: SPTLC2_Y178_R183W (peptide)
chain: MGSYNYLGFAW
B9: SPAST_Y604 (peptide)
chain: QTLEAYIRWNK
B10: SPEN_Y632 (peptide)
chain: NQDRTYYESVR
B11: SPP1_Y225_Q229K (peptide)
chain: RGKDSYETSKL
B12: SPEN_Y632_S635R (peptide)
chain: NQDRTYYERVR
B13: SPEN_Y633_YF (peptide)
chain: QDRTFYESVRT
B14: SPATA17_Y84_YF (peptide)
chain: VQVAFYTMMMN
B15: SOX11_Y113_YF (peptide)
chain: KHMADYPDFKF
B16: SOX9_Y172_P170R (peptide)
chain: KDHRDYKYQPR
B17: SOX9_Y172_H169P_YF (peptide)
chain: KDPPDYKFQPR
B18: SPTAN1_Y1020 (peptide)
chain: FVPAAYVKKLD
B19: SOX9_Y172_H169P (peptide)
chain: KDPPDYKYQPR
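Further: displayed peptides selected on beads carrying the immobilized SH2 domain, with library peptides lacking any tyrosine serving as negative controls.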

One experiment deals with SHP2 C-SH2 domain E139D. Nature of the experiment: enrichment score (SH2-bound / input frequency) (ratio); bacterial display of known human phosphotyrosine sites (pTyr-Var adds point mutants) read by sequencing; higher = stronger binding; tyrosines were phosphorylated by kinases first. As to conditions: peptide library: pTyr-Var.
Turning to B1, the enrichment score was inactive: 1.37.
Same read-out and setting: the result for B2 reads inactive: 1.33; that for B3, inactive: 1; that for B4, inactive: 0.496.
On the same count and under the same terms, the result for B5 reads inactive: 1.14; that for B6, inactive: 1.03; that for B7, inactive: 0.985.
On the same count and under the same terms, the result for B8 reads inactive: 1.15; that for B9, inactive: 2.17.
Regarding B10, the enrichment score is inactive: 0.749.
The same measure, in the same setting: in the case of B11 it was inactive: 0.457.
The same measure, in the same setting: in the case of B12 it was inactive: 0.576.
Same read-out and setting: the result for B13 reads inactive: 0.518; that for B14, inactive: 1.73; that for B15, inactive: 0.785.
As for B16, the enrichment score was inactive: 1.51.
Consider B17, for which the enrichment score was inactive: 0.8.
Same read-out and setting: the result for B18 reads inactive: 0.744; that for B19, inactive: 0.773.

Another experiment concerns the target SHP2 C-SH2 domain wild-type. The experiment is described as above. Conditions: peptide library: pTyr-Var.
Consider B1, for which the enrichment score was inactive: 1.21.
Regarding B2, the enrichment score was inactive: 1.35.
Still for that read-out and setting: in the case of B3 it was inactive: 0.785; in that of B4, inactive: 0.582; in that of B5, inactive: 1.41.
Same read-out and setting: the result for B6 reads inactive: 0.652.
On the same count and under the same terms, in the case of B7 it was inactive: 0.829; in that of B8, inactive: 0.983.
In the case of B9, the enrichment score was inactive: 2.
Regarding B10, the enrichment score was inactive: 0.778.
Same read-out and setting: the result for B11 reads inactive: 0.565; that for B12, inactive: 0.7; that for B13, inactive: 1.27.
Turning to B14, the enrichment score is inactive: 1.71.
Still for that read-out and setting: in the case of B15 it was inactive: 0.689.
On the same count and under the same terms, in the case of B16 it was inactive: 1.47; in that of B17, inactive: 0.711; in that of B18, inactive: 1.12.
For the molecule B19, the enrichment score was inactive: 0.848.

In a further experiment the target is SHP2 N-SH2 domain L43F. Described as above. Conditions: peptide library: pTyr-Var.
B1: the enrichment score is inactive: 1.05.
As for B2, the enrichment score is inactive: 1.25.
For the molecule B3, the enrichment score was inactive: 0.859.
The same measure, in the same setting: the result for B4 reads inactive: 0.824.
Still for that read-out and setting: the result for B5 reads inactive: 1.29.
Same read-out and setting: in the case of B6 it was inactive: 0.692.
As to B7, the enrichment score is inactive: 0.838.
On the same count and under the same terms, in the case of B8 it was inactive: 0.895; in that of B9, inactive: 2.1.
For B10, the enrichment score is inactive: 0.577.
Same read-out and setting: the result for B11 reads inactive: 0.713.
The same measure, in the same setting: in the case of B12 it was inactive: 0.528.
On the same count and under the same terms, in the case of B13 it was inactive: 0.556; in that of B14, inactive: 1.71; in that of B15, inactive: 0.779.
For the molecule B16, the enrichment score is inactive: 1.61.
On the same count and under the same terms, the result for B17 reads inactive: 0.739; that for B18, inactive: 0.733; that for B19, inactive: 0.778.

The target of another experiment is SHP2 N-SH2 domain T42A. Described as above. As to conditions: peptide library: pTyr-Var.
Take B1: the enrichment score is inactive: 1.09.
As to B2, the enrichment score is inactive: 1.46.
Turning to B3, the enrichment score is inactive: 0.765.
Same read-out and setting: in the case of B4 it was inactive: 0.581.
Same read-out and setting: in the case of B5 it was inactive: 1.22.
The same measure, in the same setting: in the case of B6 it was inactive: 0.695; in that of B7, inactive: 1.09; in that of B8, inactive: 1.63.
B9: the enrichment score is inactive: 1.94.
In the case of B10, the enrichment score is inactive: 0.709.
On to B11, for which the enrichment score was inactive: 0.657.
Same read-out and setting: the result for B12 reads inactive: 0.582; that for B13, inactive: 0.917.
The same measure, in the same setting: in the case of B14 it was inactive: 1.39; in that of B15, inactive: 0.621; in that of B16, inactive: 1.32.
Still for that read-out and setting: the result for B17 reads inactive: 0.762; that for B18, inactive: 1.01; that for B19, inactive: 0.724.

A further experiment has as its target SHP2 N-SH2 domain T52S. Described as above. Conditions: peptide library: pTyr-Var.
With B1, the enrichment score is inactive: 1.19.
Still for that read-out and setting: in the case of B2 it was inactive: 1.3; in that of B3, inactive: 0.803.
On to B4, for which the enrichment score is inactive: 0.907.
B5: the enrichment score was inactive: 1.52.
Same read-out and setting: the result for B6 reads inactive: 0.78.
Take B7: the enrichment score is inactive: 0.791.
Take B8: the enrichment score was inactive: 0.784.
Regarding B9, the enrichment score is inactive: 2.45.
Still for that read-out and setting: the result for B10 reads inactive: 0.591; that for B11, inactive: 0.277; that for B12, inactive: 0.528.
Same read-out and setting: in the case of B13 it was inactive: 0.925; in that of B14, inactive: 1.42.
For the molecule B15, the enrichment score was inactive: 0.712.
The same measure, in the same setting: in the case of B16 it was inactive: 1.4; in that of B17, inactive: 0.919; in that of B18, inactive: 0.882.
On the same count and under the same terms, the result for B19 reads inactive: 1.04.

In the next experiment the target is SHP2 N-SH2 domain wild-type. The experiment is described as above. As to conditions: peptide library: pTyr-Var.
In the case of B1, the enrichment score is inactive: 1.07.
The same measure, in the same setting: the result for B2 reads inactive: 1.59; that for B3, inactive: 1.03; that for B4, inactive: 0.958.
In the case of B5, the enrichment score was inactive: 1.46.
Still for that read-out and setting: the result for B6 reads inactive: 1.01; that for B7, inactive: 0.757; that for B8, inactive: 0.94.
On to B9, for which the enrichment score was inactive: 1.67.
The same measure, in the same setting: the result for B10 reads inactive: 0.908.
Still for that read-out and setting: in the case of B11 it was inactive: 0.512; in that of B12, inactive: 0.694.
Same read-out and setting: in the case of B13 it was inactive: 0.728.
With B14, the enrichment score is inactive: 1.87.
The same measure, in the same setting: in the case of B15 it was inactive: 0.74; in that of B16, inactive: 1.5; in that of B17, inactive: 0.744.
Still for that read-out and setting: in the case of B18 it was inactive: 0.896; in that of B19, inactive: 0.917.
